This note sets out measurements from paper PMC2920843 (2010).

The target in this assay is T1, CDC25c phosphopeptide (Homo sapiens).
T1 chain: LLCS[pT]PNGL
The experiment in a line: ITC.

Square brackets hold non-standard residues; d marks the D form. Ends that are not written are not given here. pT = C[C@@H](OP(=O)(O)O)[C@H](N)C(=O)O

B1: PLK1 […] (protein)
chain: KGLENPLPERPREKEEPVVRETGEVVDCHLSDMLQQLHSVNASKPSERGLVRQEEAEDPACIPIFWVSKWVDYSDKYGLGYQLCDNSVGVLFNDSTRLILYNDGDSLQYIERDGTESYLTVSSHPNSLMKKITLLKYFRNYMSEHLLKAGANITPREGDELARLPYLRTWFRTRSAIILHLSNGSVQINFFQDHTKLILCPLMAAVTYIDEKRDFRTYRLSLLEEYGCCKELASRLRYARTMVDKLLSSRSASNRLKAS
As usually defined, the Kd is the constant that tells how readily two partners part at equilibrium. B1 came in with a Kd of 705 nM.
